Measurements taken from PubChem BioAssay AID1347428 (National Center for Advancing Translational Sciences (NCATS), 2020).
Out of some 91,000 compounds screened, about 290 (0.32%) were called active. The shares of active, inactive and inconclusive entries below differ from those in the screen. The call rests on the fitted dose curve; in most records, active means well fitted inhibition curve with a large enough effect; inconclusive means small, poorly fitted or top-dose-only effect; inactive means no such curve, though single readings can be large or run the other way. Where the call is inconclusive, the potency comes from a doubtful curve fit.
Further: nearly all actives have a fitted effect of over 25% in size.
On the % scale 0 is the no-effect control and ±100 the full control effect; potency means the concentration at half of the fitted maximal effect; tags describe the fitted curve by direction and shape.

Each compound was assayed against Single-stranded DNA cytosine deaminase (Homo sapiens) (UniProt Q9GZX7) (assay: Primary qHTS assay for inhibitors of Activation Induced Cytidine Deaminase (AID): AID signal). Conditions: AID deamination FRET fluorescence, UDG-coupled, 4 h; activity change, negative = inhibition: at 115 µM (top of the series).
UniProt Q9GZX7, sequence (Q9GZX7 whole entry, looked up): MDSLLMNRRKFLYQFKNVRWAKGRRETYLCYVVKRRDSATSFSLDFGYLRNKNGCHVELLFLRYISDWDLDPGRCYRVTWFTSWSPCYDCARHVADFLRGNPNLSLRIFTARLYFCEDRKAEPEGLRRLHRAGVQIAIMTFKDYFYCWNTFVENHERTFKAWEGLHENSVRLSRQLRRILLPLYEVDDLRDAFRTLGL
In the case of `CCC(=O)N1CCCc2cc(S(=O)(=O)N3CCC(C(=O)Nc4ccc(F)c(F)c4)CC3)ccc21`, the Potency is reported as inconclusive: 25.1 µM [inhibitor, full curve, poor fit].
For `CC(C)OCCCNC(=S)NC1CCCC1`, the “activity change, negative = inhibition” value was inactive: -7.09%.
In the case of `CCCn1nc(C(=O)Nc2nccs2)c2ccccc2c1=O`, the “activity change, negative = inhibition” value is reported as inactive: -2.76%.
For `COc1ccc(-c2cc3ccc(OS(=O)(=O)c4ccccc4)cc3oc2=O)cc1OC`, the “activity change, negative = inhibition” value was inactive: -6.1%.
For `CC(NC(=O)c1nn(C)c2c1CSc1ccccc1-2)c1ccccc1` (centres undefined), the Potency was inconclusive: 25.1 µM [inhibitor, full curve].
`CCCCOc1ccc(C(=O)N2CCC(c3nc4ccccc4o3)CC2)cc1` was tested, and the Potency was inconclusive: 50.1 µM [inhibitor, partial curve, poor fit].
With `CSc1cccc(NC(=O)C2CCN(c3ncnc4c3nc3n4CCCCC3)CC2)c1` the Potency was inconclusive: 44.7 µM [inhibitor, partial curve].
In the case of `CCn1cc(CNC(=O)Nc2ccc(Cl)c(Cl)c2)c(C)n1`, the “activity change, negative = inhibition” value is reported as inactive: -13.4%.
In the case of `CCN(CC)c1ccc(-c2nn3c(-c4ccccc4C)nnc3s2)cc1`, the Potency is reported as inconclusive: 50.1 µM [inhibitor, partial curve, poor fit].
With `CCOc1ccc(-c2nnc(N3CCOCC3)c3ccccc23)cc1` the Potency was inconclusive: 39.8 µM [inhibitor, partial curve, poor fit].
With `Cc1cccc(N(CC(=O)NCCSCc2ccc(Cl)cc2)S(C)(=O)=O)c1C` the Potency was inconclusive: 3.16 µM [inhibitor, full curve, poor fit].
For `Cc1c(Cl)cccc1Nc1nn2c(=O)c3ccc(C(=O)NCCc4ccccc4)cc3nc2s1`, the Potency was inconclusive: 89.1 µM [inhibitor, single point].
`COc1ccc(CCNC(=O)c2cc(Nc3cc(C)cc(C)c3)nc3ccccc23)cc1OC` was tested, and the Potency was inconclusive: 89.1 µM [inhibitor, partial curve, poor fit].
`Cc1cc(C)cc(-n2ccnc2SCC(=O)Nc2nc3ccc(C)cc3s2)c1` was tested, and the Potency was inconclusive: 100 µM [inhibitor, single point].
For `COc1ccc(-c2cc3ccc(OC(=O)c4ccco4)cc3oc2=O)cc1`, the “activity change, negative = inhibition” value was inactive: -14.7%.
With `Cc1ccc2nc(/C(C#N)=C\c3ccc(C)s3)[nH]c2c1` the “activity change, negative = inhibition” value was inactive: -8.83%.
`CC(C)OCCCN1C(=O)c2[nH]nc(-c3ccccc3O)c2C1c1cccc(OCc2ccccc2)c1` (centres undefined) was tested, and the Potency was inconclusive: 50.1 µM [inhibitor, partial curve, poor fit].
`CC1CCC(COC(=O)C[N+]2(C)CCCCC2)C(C)C1` (centres undefined) was tested, and the “activity change, negative = inhibition” value was inactive: 2.7%.
In the case of `O=C(CC1Nc2cccc3cccc(c23)NC1=O)Nc1ccc(F)cc1` (centres undefined), the Potency is reported as inconclusive: 50.1 µM [inhibitor, partial curve, poor fit].
For `COc1ccc(Cl)cc1NC(=O)Cn1cnc2sc(C)c(S(=O)(=O)N3CCN(c4ccccc4OC)CC3)c2c1=O`, the Potency was inconclusive: 39.8 µM [inhibitor, single point].
`Cc1ccc2c(CC(=O)N(Cc3cccc(Cl)c3)C3CCS(=O)(=O)C3)coc2c1` (centres undefined) was tested, and the Potency was inconclusive: 35.5 µM [inhibitor, full curve].
In the case of `CCCN(Cc1cccs1)C(=O)Nc1ccc(F)c(Cl)c1`, the Potency is reported as inconclusive: 56.2 µM [inhibitor, partial curve, poor fit].
`CCS(=O)(=O)c1ncc(Cl)c(C(=O)N(Cc2ccccc2)c2ccc(OC)cc2)n1` was tested, and the Potency was inconclusive: 28.2 µM [inhibitor, single point].
`CCCCC1CCC(CCCC(C)CCC(=O)O)CC1` (centres undefined) was tested, and the Potency was inconclusive: 50.1 µM [inhibitor, partial curve, poor fit].
`CCc1cccc(NS(=O)(=O)c2cc(-c3cnc(C)o3)ccc2OC)c1` was tested, and the Potency was inconclusive: 79.4 µM [inhibitor, single point].
With `CNC(=O)NC(=O)C(C)SC(C)c1c(F)cccc1F` (centres undefined) the “activity change, negative = inhibition” value was inactive: -6.67%.
With `CCn1cc(S(=O)(=O)c2ccc(C)cc2C)c(=O)c2cc(F)c(N3CCCCC3)cc21` the Potency was inconclusive: 20 µM [inhibitor, full curve, poor fit].
For `CCOc1cc(/C=C(\C#N)c2nc3ccccc3[nH]2)ccc1OC(C)C`, the “activity change, negative = inhibition” value was inactive: -7.22%.
`CC(=O)Nc1c(C)nn(-c2ccccc2)c1N1CCC(C(=O)Nc2cccc(C(F)(F)F)c2)CC1` was tested, and the Potency was inconclusive: 100 µM [inhibitor, single point].
With `COc1ccc(CCNC(=O)Cn2c(=O)c3cccn3c3ccccc32)cc1OC` the “activity change, negative = inhibition” value was inactive: 1.09%.
For `CCN(Cc1ccccc1)c1sc(S(=O)(=O)CC)nc1S(=O)(=O)c1ccc(C)cc1`, the “activity change, negative = inhibition” value was inactive: -11.6%.
For `Cc1ccc(S(=O)(=O)c2nnn3c2nc(N2CCC(C(N)=O)CC2)c2cc(Cl)ccc23)cc1C`, the Potency was inconclusive: 17.8 µM [inhibitor, full curve, poor fit].
In the case of `CCCc1ccc(NC(=O)c2nccnc2N)cc1`, the “activity change, negative = inhibition” value is reported as inactive: -6.68%.
In the case of `Cc1ccc(N)c2cccnc12`, the “activity change, negative = inhibition” value is reported as inactive: 6.58%.
With `Cc1ccc(CN(C)C(=O)COc2ccc3ccc(=O)oc3c2)cc1` the “activity change, negative = inhibition” value was inactive: 5.8%.
With `O=C(CC1N=C2c3ccccc3N=C(SCc3cccc(Cl)c3)N2C1=O)NC1CCCCC1` (centres undefined) the Potency was inconclusive: 35.5 µM [inhibitor, partial curve, poor fit].
With `Cc1cc(C)c2oc(-c3cc(NC(=O)c4ccco4)ccc3O)nc2c1` the “activity change, negative = inhibition” value was inactive: -10.6%.
With `O=C1CC(c2ccc3c(c2)OCO3)c2c(n[nH]c2Nc2ccccc2)N1` (centres undefined) the “activity change, negative = inhibition” value was inactive: 2.56%.
For `Cc1ccc(Cl)cc1N1CCN(C(=O)c2c(C)oc3ncnc(N4CCOCC4)c23)CC1`, the Potency was inconclusive: 17.8 µM [inhibitor, full curve, poor fit].
For `Cc1ccc(C(=O)Nc2nnc(SCc3cc(=O)c4c(C)ccc(C)c4[nH]3)s2)cc1`, the Potency was inconclusive: 31.6 µM [inhibitor, single point].
With `CCCCCCCCOC(=O)C1C(c2ccccc2)C(C(=O)O)C1c1ccccc1` (centres undefined) the Potency was inconclusive: 89.1 µM [inhibitor, partial curve, poor fit].
For `COc1cc2c(=O)c(S(=O)(=O)c3ccc(C)cc3)cn(Cc3cccc(C)c3)c2cc1OC`, the Potency was active: 39.8 µM.
With `N#Cc1cccnc1Sc1ccc(F)c(Cl)c1` the “activity change, negative = inhibition” value was inactive: -8.84%.
In the case of `COc1ccc(NC(=O)CN(c2cccc(C)c2C)S(=O)(=O)c2ccccc2)cc1OC`, the Potency is reported as inconclusive: 10 µM [inhibitor, full curve, poor fit].
